The numbers were not newly measured in PMC11006913, which cites them from elsewhere.

This is one part of the list.

Some targets named below: ARX (Homo sapiens) (UniProt Q96QS3); ARX L343Q (Homo sapiens) (UniProt Q96QS3); ARX P353L (Homo sapiens) (UniProt Q96QS3); ARX P353R (Homo sapiens) (UniProt Q96QS3); ARX R332H (Homo sapiens) (UniProt Q96QS3); ARX T333N (Homo sapiens) (UniProt Q96QS3).
Holding throughout (details): PBM; conditions not shown; double strand, one strand shown; scale: upbm affinity estimate (log intensity, higher = more binding, comparable within an allelic series)

As to ACCCGGGT [8-mer ACCCGGGT], the binding signal in the data set with ARX (Homo sapiens) is 10.5; with ARX L343Q (Homo sapiens), 10.2; in the data set with ARX P353L (Homo sapiens) it was 10.6; with ARX P353R (Homo sapiens), 10.1; with ARX R332H (Homo sapiens), 10.2; with ARX T333N (Homo sapiens), 10.4.

With GCGCAGCC [8-mer GCGCAGCC], the binding signal with ARX (Homo sapiens) is 10.1; with ARX L343Q (Homo sapiens) it was 10; with ARX P353L (Homo sapiens), 10; in the data set with ARX P353R (Homo sapiens), 9.94; in the data set with ARX R332H (Homo sapiens) it was 9.99; in the data set with ARX T333N (Homo sapiens), 10.1.

With AGCGGCTC [8-mer AGCGGCTC], the binding signal in the data set with ARX (Homo sapiens) is 10.2; with ARX L343Q (Homo sapiens), 10; with ARX P353L (Homo sapiens), 10.3; in the data set with ARX P353R (Homo sapiens) it was 10.1; with ARX R332H (Homo sapiens), 10; in the data set with ARX T333N (Homo sapiens), 10.2.

On to ACGCCCCC [8-mer ACGCCCCC], for which the binding signal is 10.2 with ARX (Homo sapiens); 10.1 in the data set with ARX L343Q (Homo sapiens); 10.3 in the data set with ARX P353L (Homo sapiens); 9.99 with ARX P353R (Homo sapiens); 9.97 in the data set with ARX R332H (Homo sapiens); 10.3 with ARX T333N (Homo sapiens).

For CAGCCGCC [8-mer CAGCCGCC], the binding signal with ARX (Homo sapiens) is 10.1; with ARX L343Q (Homo sapiens) it was 10.1; in the data set with ARX P353L (Homo sapiens), 10.1; in the data set with ARX P353R (Homo sapiens) it was 9.96; with ARX R332H (Homo sapiens), 10.1; in the data set with ARX T333N (Homo sapiens) it was 10.2.

GGCCGAAC [8-mer GGCCGAAC]: the binding signal with ARX (Homo sapiens) is 10.3; in the data set with ARX L343Q (Homo sapiens) it was 10.2; with ARX P353L (Homo sapiens) it was 10.3; with ARX P353R (Homo sapiens) it was 10.2; with ARX R332H (Homo sapiens), 10.2; in the data set with ARX T333N (Homo sapiens), 10.2.

In the case of CCGGACCC [8-mer CCGGACCC], the binding signal with ARX (Homo sapiens) was 10.1; in the data set with ARX L343Q (Homo sapiens), 10.1; in the data set with ARX P353L (Homo sapiens), 10.1; in the data set with ARX P353R (Homo sapiens) it was 10; in the data set with ARX R332H (Homo sapiens), 10; in the data set with ARX T333N (Homo sapiens), 10.2.

As to CCCGGCGG [8-mer CCCGGCGG], the binding signal was 10.1 with ARX (Homo sapiens); 10 with ARX L343Q (Homo sapiens); 10.1 in the data set with ARX P353L (Homo sapiens); 9.97 with ARX P353R (Homo sapiens); 9.96 with ARX R332H (Homo sapiens); 10.2 with ARX T333N (Homo sapiens).

As for CTGGGCGA [8-mer CTGGGCGA], the binding signal was 10.3 with ARX (Homo sapiens); 10.2 with ARX L343Q (Homo sapiens); 10.5 in the data set with ARX P353L (Homo sapiens); 10.2 with ARX P353R (Homo sapiens); 10.2 with ARX R332H (Homo sapiens); 10.4 with ARX T333N (Homo sapiens).

For CGCAGTGC [8-mer CGCAGTGC], the binding signal with ARX (Homo sapiens) was 10.3; with ARX L343Q (Homo sapiens) it was 10.2; in the data set with ARX P353L (Homo sapiens) it was 10.2; with ARX P353R (Homo sapiens), 10.2; with ARX R332H (Homo sapiens) it was 10.4; with ARX T333N (Homo sapiens) it was 10.2.

For AGCGGAGG [8-mer AGCGGAGG], the binding signal is 10.2 with ARX (Homo sapiens); 10.2 in the data set with ARX L343Q (Homo sapiens); 10.2 with ARX P353L (Homo sapiens); 10.1 in the data set with ARX P353R (Homo sapiens); 10.2 with ARX R332H (Homo sapiens); 10.3 with ARX T333N (Homo sapiens).

With CACGCCTC [8-mer CACGCCTC], the binding signal is 10.2 with ARX (Homo sapiens); 10.3 with ARX L343Q (Homo sapiens); 10.2 with ARX P353L (Homo sapiens); 10.2 in the data set with ARX P353R (Homo sapiens); 10.3 in the data set with ARX R332H (Homo sapiens); 10.2 in the data set with ARX T333N (Homo sapiens).

For CGCGAGCG [8-mer CGCGAGCG], the binding signal with ARX (Homo sapiens) is 10.4; in the data set with ARX L343Q (Homo sapiens) it was 10.2; in the data set with ARX P353L (Homo sapiens) it was 10.3; with ARX P353R (Homo sapiens) it was 10.2; with ARX R332H (Homo sapiens) it was 10.2; with ARX T333N (Homo sapiens), 10.4.

Consider CCGCCCCC [8-mer CCGCCCCC], for which the binding signal with ARX (Homo sapiens) was 9.9; with ARX L343Q (Homo sapiens), 9.97; with ARX P353L (Homo sapiens), 9.94; with ARX P353R (Homo sapiens), 9.84; in the data set with ARX R332H (Homo sapiens), 9.76; with ARX T333N (Homo sapiens) it was 10.1.

With CCAGACGG [8-mer CCAGACGG], the binding signal with ARX (Homo sapiens) was 10.2; with ARX L343Q (Homo sapiens), 10.2; in the data set with ARX P353L (Homo sapiens), 10.2; with ARX P353R (Homo sapiens), 10.2; in the data set with ARX R332H (Homo sapiens) it was 10.1; with ARX T333N (Homo sapiens), 10.2.

GCCGACCC [8-mer GCCGACCC]: the binding signal is 10 with ARX (Homo sapiens); 9.9 in the data set with ARX L343Q (Homo sapiens); 10.1 with ARX P353L (Homo sapiens); 9.88 with ARX P353R (Homo sapiens); 9.92 with ARX R332H (Homo sapiens); 10.1 with ARX T333N (Homo sapiens).

Consider GCCCCGCA [8-mer GCCCCGCA], for which the binding signal with ARX (Homo sapiens) is 10.1; with ARX L343Q (Homo sapiens), 10; with ARX P353L (Homo sapiens) it was 10; with ARX P353R (Homo sapiens), 9.99; with ARX R332H (Homo sapiens) it was 10.1; in the data set with ARX T333N (Homo sapiens), 10.2.

As for AGGCGGGA [8-mer AGGCGGGA], the binding signal with ARX (Homo sapiens) is 10.2; with ARX L343Q (Homo sapiens), 10.2; with ARX P353L (Homo sapiens), 10.2; with ARX P353R (Homo sapiens) it was 10.2; with ARX R332H (Homo sapiens), 10.2; with ARX T333N (Homo sapiens), 10.3.
